Data from the supplement of paper PMC5998384.

Tests used:
HeLa Kyoto [1] = assay: melting temperature (median over replicates), in situ; higher = more thermally stable
HeLa Kyoto [2] = assay: solubility change mitosis vs G1/S (difference of NP-40 vs SDS log2 ratios) (log2 ratio difference); higher = more soluble in mitosis
HeLa Kyoto [3] = assay: solubility in G1/S (NP-40 vs SDS abundance) (log2 ratio); higher = more soluble; conditions: cell cycle stage: G1/S
HeLa Kyoto [4] = assay: thermal stability score vs G1/S (z-score of summed log2 fold changes over temperatures); higher = more thermally stable than in G1/S
[5] = cell cycle stage: early G1 (4.5 h after nocodazole release)
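For melting temperature (median over replicates), in situ in this document: HeLa Kyoto cells synchronized by double thymidine or nocodazole block, proteins quantified by TMT10plex mass spectrometry, three independent biological replicates.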
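For solubility change mitosis vs G1/S (difference of NP-40 vs SDS log2 ratios) in this document: synchronized HeLa Kyoto cells (double thymidine block for G1/S, nocodazole release for mitosis), protein amounts in NP-40 versus SDS lysates quantified by mass spectrometry, three biological replicates.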
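For solubility in G1/S (NP-40 vs SDS abundance) in this document: HeLa Kyoto cells arrested at G1/S by double thymidine block, proteins quantified by TMT10plex mass spectrometry in mild NP-40 versus SDS extracts, three biological replicates.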
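For thermal stability score vs G1/S (z-score of summed log2 fold changes over temperatures) in this document: synchronized HeLa Kyoto cells, proteins quantified by TMT10plex mass spectrometry, three biological replicates, mitosis taken 0.5 h after nocodazole release, G1/S directly after double thymidine block.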

Row | Sequence | melting temperature (HeLa Kyoto [1]; cell cycle stage: G1/S) | melting temperature (HeLa Kyoto [1]; cell cycle stage: mitosis) | solubility change mitosis (log2) (HeLa Kyoto [2]) | solubility in G1/S (log2) (HeLa Kyoto [3]) | thermal stability score (HeLa Kyoto [4]; [5]) | thermal stability score (HeLa Kyoto [4]; cell cycle stage: mitosis)
1 | MAEPLKEEDGEDGSAEPPGPVKAEPAHTAASVAAKNLALLKARSFDVTFDVGDEYEIIETIGNGAYGVVSSARRRLTGQQVAIKKIPNAFDVVTNAKRTLRELKILKHFKHDNIIAIKDILRPTVPYGEFKSVYVVLDLMESDLHQIIHSSQPLTLEHVRYFLYQLLRGLKYMHSAQVIHRDLKPSNLLVNENCELKIGDFGMARGLCTSPAEHQYFMTEYVATRWYRAPELMLSLHEYTQAIDLWSVGCIFGEMLARRQLFPGKNYVHQLQLIMMVLGTPSPAVIQAVGAERVRAYIQSLPPRQPVPWETVYPGADRQALSLLGRMLRFEPSARISAAAALRHPFLAKYHDPDDEPDCAPPFDFAFDREALTRERIKEAIVAEIEDFHARREGIRQQIRFQPSLQPVASEPGCPDVEMPSPWAPSGDCAMESPPPAPPPCPGPAPDTIDLTLQPPPPVSEPAPPKKDGAISDNTKAALKAALLKSLRSRLRDGPSAPLEAPEPRKPVTAQERQREREEKRRRRQERAKEREKRRQERERKERGAGASGGPSTDPLAGLVLSDNDRSLLERWTRMARPAAPALTSVPAPAPAPTPTPTPVQPTSPPPGPVAQPTGPQPQSAGSTSGPVPQPACPPPGPAPHPTGPPGPIPVPAPPQIATSTSLLAAQSLVPPPGLPGSSTPGVLPYFPPGLPPPDAGGAPQSSMSESPDVNLVTQQLSKSQVEDPLPPVFSGTPKGSGAGYGVGFDLEEFLNQSFDMGVADGPQDGQADSASLSASLLADWLEGHGMNPADIESLQREIQMDSPMLLADLPDLQDP [MAPK7] | 49.7 °C | 50.2 °C | -0.123 | 0.0455 | 1.5 | 0.555
2 | MSSAAEPPPPPPPESAPSKPAASIASGGSNSSNKGGPEGVAAQAVASAASAGPADAEMEEIFDDASPGKQKEIQEPDPTYEEKMQTDRANRFEYLLKQTELFAHFIQPAAQKTPTSPLKMKPGRPRIKKDEKQNLLSVGDYRHRRTEQEEDEELLTESSKATNVCTRFEDSPSYVKWGKLRDYQVRGLNWLISLYENGINGILADEMGLGKTLQTISLLGYMKHYRNIPGPHMVLVPKSTLHNWMSEFKRWVPTLRSVCLIGDKEQRAAFVRDVLLPGEWDVCVTSYEMLIKEKSVFKKFNWRYLVIDEAHRIKNEKSKLSEIVREFKTTNRLLLTGTPLQNNLHELWSLLNFLLPDVFNSADDFDSWFDTNNCLGDQKLVERLHMVLRPFLLRRIKADVEKSLPPKKEVKIYVGLSKMQREWYTRILMKDIDILNSAGKMDKMRLLNILMQLRKCCNHPYLFDGAEPGPPYTTDMHLVTNSGKMVVLDKLLPKLKEQGSRVLIFSQMTRVLDILEDYCMWRNYEYCRLDGQTPHDERQDSINAYNEPNSTKFVFMLSTRAGGLGINLATADVVILYDSDWNPQVDLQAMDRAHRIGQTKTVRVFRFITDNTVEERIVERAEMKLRLDSIVIQQGRLVDQNLNKIGKDEMLQMIRHGATHVFASKESEITDEDIDGILERGAKKTAEMNEKLSKMGESSLRNFTMDTESSVYNFEGEDYREKQKIAFTEWIEPPKRERKANYAVDAYFREALRVSEPKAPKAPRPPKQPNVQDFQFFPPRLFELLEKEILFYRKTIGYKVPRNPELPNAAQAQKEEQLKIDEAESLNDEELEEKEKLLTQGFTNWNKRDFNQFIKANEKWGRDDIENIAREVEGKTPEEVIEYSAVFWERCNELQDIEKIMAQIERGEARIQRRISIKKALDTKIGRYKAPFHQLRISYGTNKGKNYTEEEDRFLICMLHKLGFDKENVYDELRQCIRNSPQFRFDWFLKSRTAMELQRRCNTLITLIERENMELEEKEKAEKKKRGPKPSTQKRKMDGAPDGRGRKKKLKL [SMARCA5] | 47.6 °C | 49.7 °C | 0.525 | -1.11 | 2.44 | 6.98
